Assay results published in paper PMC5892938.
The other results are listed elsewhere or left out. At the low end of the ranking the order means little.

Biological target: GST-SBP-SLBP (stem-loop binding protein) (UniProt Q14493)
Experiment: targeted RNA Bind-n-Seq;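 also: DESeq read counts versus GST-SBP nonspecific binding control pulldown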
Conditions: RBNS binding buffer: 25 mM Tris pH 7.5, 150 mM KCl, 3 mM MgCl2, 0.1% Tween, 0.5 mg/mL BSA, 1 mM DTT; 27 nM protein, 750 pM RNA pool; temperature not stated; high values mean tight binding

Sequence | binding signal (log2 fold change)
GGUCACGUCUCAAUCAACUCAGUCCCAGGAGUUUUCUCCUGCUUAUUCAACAGCUCGCAGUCAAG | -0.076
GGUCACGUCUCAAUCAACUCAAUAGAGGGGGGGAAAACCCCUUUGCCCUCCAACUCAACAGCUCGCAGUCAAG | -0.427
GGUCACGUCUCAAUCAACUCAUCCCCAGGAGUUUCCUCCUGCUUUUUCAACAGCUCGCAGUCAAG | 0.121
GGUCACGUCUCAAUCAACUCAUCCCCCAGGGAAACCCCUGGUUUACUCAACAGCUCGCAGUCAAG | 0.0898
GGUCACGUCUCAAUCAACUCAUCGUCAGGAGUUUACUCCUGCAUUUUCAACAGCUCGCAGUCAAG | -0.158
GGUCACGUCUCAAUCAACUCAUCCCCAGGAGUUUUCUCCUGUUAUUUCAACAGCUCGCAGUCAAG | -0.028
GGUCACGUCUCAAUCAACUCAUCUCCCAGGGAAAGCCCUGGCUUAUUCAACAGCUCGCAGUCAAG | -0.15
GGUCACGUCUCAAUCAACUCAUCUCCCAGGGAAACCCCUGGUAUAUUCAACAGCUCGCAGUCAAG | -0.0789
GGUCACGUCUCAAUCAACUCUUCUUCAGGAGUUUACUCCUGCUUAUUCAACAGCUCGCAGUCAAG | 0.0225
GGUCACGUCUCAAUCAACUCAACUUCCAGGGAAACCCCUGGCUAAUUCAACAGCUCGCAGUCAAG | -0.156
GGUCACGUCUCAAUCAACUCAUCCCCCAGGGAAAACCCUGGCAUUUUCAACAGCUCGCAGUCAAG | -0.156
GGUCACGUCUCAAUCAACUCUACUCCAGGAGUUUUCUCCUGUUAUUUCAACAGCUCGCAGUCAAG | 0.0218
GGUCACGUCUCAAUCAACUCUUUUCCAGGAGUUUUCUCCUGCUUUUUCAACAGCUCGCAGUCAAG | 0.0159
GGUCACGUCUCAAUCAACUCAUUUCCCAGGGAAACCCCUGGCUAACUCAACAGCUCGCAGUCAAG | -0.0352
GGUCACGUCUCAAUCAACUCAUCCCCCAGGGAAAGCCCUGGCAUUUUCAACAGCUCGCAGUCAAG | -0.17
GGUCACGUCUCAAUCAACUCAUCCCCAGGAGUUUCCUCCUGCUUACUCAACAGCUCGCAGUCAAG | 0.00707
GGUCACGUCUCAAUCAACUCACAAGAGGGGGGGAAAACCCCUUUACCCUCCAAAUCAACAGCUCGCAGUCAAG | -0.626
GGUCACGUCUCAAUCAACUCCCACGAGGGGGGGAAAACCCCUUUACCCUCACAAUCAACAGCUCGCAGUCAAG | -0.443
GGUCACGUCUCAAUCAACUCUUUUCCCAGGGAAAACCCUGGCUUUCUCAACAGCUCGCAGUCAAG | -0.0313
GGUCACGUCUCAAUCAACUCAUCUGAGGGGGGGAAAACCCCUUUACCCUCCAUAUCAACAGCUCGCAGUCAAG | 0.0956
GGUCACGUCUCAAUCAACUCUCUCGAGGGGGGGAAAACCCCUUUACCCUCUAUAUCAACAGCUCGCAGUCAAG | -0.0714
GGUCACGUCUCAAUCAACUCUACUCCCAGGGAAAACCCUGGUUAAUUCAACAGCUCGCAGUCAAG | 0.181
GGUCACGUCUCAAUCAACUCUUUUUCCAGGGAAAUCCCUGGUUAUCUCAACAGCUCGCAGUCAAG | -0.085
GGUCACGUCUCAAUCAACUCAUUUUCCAGGGAAACCCCUGGCUAACUCAACAGCUCGCAGUCAAG | -0.0824
GGUCACGUCUCAAUCAACUCUAAAGAGGGGGGGAAAACCCCUUUGCCCUCAAUUUCAACAGCUCGCAGUCAAG | 0.00921

Sequence | binding signal (log2 fold change)
GGUCACGUCUCAAUCAACUCAGUCUCAGGAGUUUACUCCUGCUAUUUCAACAGCUCGCAGUCAAG | -0.0565
GGUCACGUCUCAAUCAACUCUUCGGAGGGGGGGAAAACCCCUUUACCCUCACACUCAACAGCUCGCAGUCAAG | 0.0424
GGUCACGUCUCAAUCAACUCUAUCCCAGGAGUUUCCUCCUGUAUAUUCAACAGCUCGCAGUCAAG | 0.0937
GGUCACGUCUCAAUCAACUCUAUAGAGGGGGGGAAAACCCCUUUACCCUCAUCUUCAACAGCUCGCAGUCAAG | 0.161
GGUCACGUCUCAAUCAACUCAUUCUCAGGAGUUUUCUCCUGCUUAGUCAACAGCUCGCAGUCAAG | 0.161
GGUCACGUCUCAAUCAACUCUUCAGAGGGGGGGAAAACCCCUUUACCCUCCAUAUCAACAGCUCGCAGUCAAG | -0.491
GGUCACGUCUCAAUCAACUCAUUUUCCAGGGAAAACCCUGGCUUAGUCAACAGCUCGCAGUCAAG | -0.175
GGUCACGUCUCAAUCAACUCUACUUCCAGGGAAAGCCCUGGCUAUCUCAACAGCUCGCAGUCAAG | -0.217
GGUCACGUCUCAAUCAACUCAUCUCCCAGGGAAAGCCCUGGUUAUUUCAACAGCUCGCAGUCAAG | -0.239
GGUCACGUCUCAAUCAACUCAAGUCCAGGAGUUUCCUCCUGCUAUCUCAACAGCUCGCAGUCAAG | -0.045
GGUCACGUCUCAAUCAACUCAAUUUCCAGGGAAACCCCUGGCUUACUCAACAGCUCGCAGUCAAG | 0.229
GGUCACGUCUCAAUCAACUCAACGGCAGGAGUUUUCUCCUGGAAUCUCAACAGCUCGCAGUCAAG | -0.111
GGUCACGUCUCAAUCAACUCUAUUUCCAGGGAAAACCCUGGCUAACUCAACAGCUCGCAGUCAAG | 0.157
GGUCACGUCUCAAUCAACUCAUUCUCAGGAGUUUCCUCCUGCUUUUUCAACAGCUCGCAGUCAAG | -0.141
GGUCACGUCUCAAUCAACUCAUCGUCCAGGGAAACCCCUGGUUUAUUCAACAGCUCGCAGUCAAG | 0.0032
GGUCACGUCUCAAUCAACUCUAUCCCCAGGGAAAUCCCUGGUAUACUCAACAGCUCGCAGUCAAG | 0.12
GGUCACGUCUCAAUCAACUCAUCUCCAGGAGUUUUCUCCUGCAUUUUCAACAGCUCGCAGUCAAG | -0.0725
GGUCACGUCUCAAUCAACUCUAUCCCCAGGGAAAGCCCUGGUUAUCUCAACAGCUCGCAGUCAAG | -0.194
GGUCACGUCUCAAUCAACUCUUUCCCCAGGGAAAUCCCUGGUUUAUUCAACAGCUCGCAGUCAAG | -0.0609
GGUCACGUCUCAAUCAACUCUAACGAGGGGGGGAAAACCCCUUUACCCUCAUUUUCAACAGCUCGCAGUCAAG | 0.0587
GGUCACGUCUCAAUCAACUCUAAAGAGGGGGGGAAAACCCCUUUACCCUCAUCCUCAACAGCUCGCAGUCAAG | -0.1
GGUCACGUCUCAAUCAACUCUUCGCCCAGGGAAAGCCCUGGUAUUUUCAACAGCUCGCAGUCAAG | -0.124
GGUCACGUCUCAAUCAACUCCUACGAGGGGGGGAAAACCCCUUUACCCUCAAAUUCAACAGCUCGCAGUCAAG | 0.442
GGUCACGUCUCAAUCAACUCACAUGAGGGGGGGAAAACCCCUUUGCCCUCUAAUUCAACAGCUCGCAGUCAAG | -0.15
GGUCACGUCUCAAUCAACUCUUCCUCCAGGGAAAACCCUGGCUAUUUCAACAGCUCGCAGUCAAG | 0.0356

Sequence | binding signal (log2 fold change)
GGUCACGUCUCAAUCAACUCUUCUCCAGGAGUUUCCUCCUGCUUUUUCAACAGCUCGCAGUCAAG | 0.13
GGUCACGUCUCAAUCAACUCAACUUCAGGAGUUUUCUCCUGCAUUCUCAACAGCUCGCAGUCAAG | 0.0165
GGUCACGUCUCAAUCAACUCUCAAGAGGGGGGGAAAACCCCUUUACCCUCCAUUUCAACAGCUCGCAGUCAAG | -0.196
GGUCACGUCUCAAUCAACUCAUUUUCAGGAGUUUUCUCCUGCAAUUUCAACAGCUCGCAGUCAAG | -0.0703
GGUCACGUCUCAAUCAACUCUUCCUCCAGGGAAACCCCUGGUAAUCUCAACAGCUCGCAGUCAAG | -0.0491
GGUCACGUCUCAAUCAACUCUAUUUCCAGGGAAAUCCCUGGCAAUUUCAACAGCUCGCAGUCAAG | 0.089
GGUCACGUCUCAAUCAACUCUUCGUCCAGGGAAAUCCCUGGCUUUUUCAACAGCUCGCAGUCAAG | -0.0894
GGUCACGUCUCAAUCAACUCUCCAGAGGGGGGGAAAACCCCUUUACCCUCGUUAUCAACAGCUCGCAGUCAAG | -0.263
GGUCACGUCUCAAUCAACUCAAUCUCAGGAGUUUUCUCCUGCAUACUCAACAGCUCGCAGUCAAG | 0.153
GGUCACGUCUCAAUCAACUCUUCUCCAGGAGUUUACUCCUGCAAAUUCAACAGCUCGCAGUCAAG | 0.0277
GGUCACGUCUCAAUCAACUCAAUUCCAGGAGUUUCCUCCUGCUAACUCAACAGCUCGCAGUCAAG | 0.000901
GGUCACGUCUCAAUCAACUCAUUCUCCAGGGAAAUCCCUGGUUAUCUCAACAGCUCGCAGUCAAG | 0.0311
GGUCACGUCUCAAUCAACUCUAUCGAGGGGGGGAAAACCCCUUUACCCUCAAAAUCAACAGCUCGCAGUCAAG | -0.193
GGUCACGUCUCAAUCAACUCAACUCCAGGAGUUUCCUCCUGUAUUUUCAACAGCUCGCAGUCAAG | 0.0431
GGUCACGUCUCAAUCAACUCUUCCUCCAGGGAAAUCCCUGGUAUACUCAACAGCUCGCAGUCAAG | 0.0329
GGUCACGUCUCAAUCAACUCCAUAGAGGGGGGGAAAACCCCUUUACCCUCGUCAUCAACAGCUCGCAGUCAAG | 0.0253
GGUCACGUCUCAAUCAACUCAUCCUCCAGGGAAACCCCUGGUUUUUUCAACAGCUCGCAGUCAAG | -0.16
GGUCACGUCUCAAUCAACUCAUUUUCCAGGGAAAACCCUGGCAUUCUCAACAGCUCGCAGUCAAG | 0.0806
GGUCACGUCUCAAUCAACUCAUUUUCCAGGGAAAGCCCUGGCUUAGUCAACAGCUCGCAGUCAAG | -0.00418
GGUCACGUCUCAAUCAACUCUUUCCCCAGGGAAACCCCUGGCUUUCUCAACAGCUCGCAGUCAAG | 0.0479
GGUCACGUCUCAAUCAACUCAACAGAGGGGGGGAAAACCCCUUUGCCCUCCAUUUCAACAGCUCGCAGUCAAG | -0.132
GGUCACGUCUCAAUCAACUCUAACGAGGGGGGGAAAACCCCUUUACCCUCACAAUCAACAGCUCGCAGUCAAG | -0.0782
GGUCACGUCUCAAUCAACUCAUCCUCAGGAGUUUCCUCCUGUUUAUUCAACAGCUCGCAGUCAAG | 0.147
GGUCACGUCUCAAUCAACUCUUUUCCCAGGGAAAACCCUGGUUAUUUCAACAGCUCGCAGUCAAG | -0.0893
